Where two headings read alike, the source gives them in different places.
Legend:
[1] = target: T1, 人源TGFβ1蛋白(Sinobiological，10804-H08H) (human, UniProt P01137 30-390); test: ELISA as in example 5, human TGFβ1 coated
T1 construct: Coated at 2 μg/mL on the ELISA plate

[2] = target: T1, 人源TGFβ1蛋白(Sinobiological，10804-H08H); test: ELISA, human TGFβ1 coated at 2 μg/mL, HRP goat anti-human IgG
人源PD-1 [3] = target: T2, 人源PD-1 (human, UniProt Q15116 25-288); test: cell-based or functional assay
人源PD-1 [4] = target: T2, 人源PD-1; test: cell-based or functional assay; remark: listed apart in the source
T2 sequence (Q15116 25-288): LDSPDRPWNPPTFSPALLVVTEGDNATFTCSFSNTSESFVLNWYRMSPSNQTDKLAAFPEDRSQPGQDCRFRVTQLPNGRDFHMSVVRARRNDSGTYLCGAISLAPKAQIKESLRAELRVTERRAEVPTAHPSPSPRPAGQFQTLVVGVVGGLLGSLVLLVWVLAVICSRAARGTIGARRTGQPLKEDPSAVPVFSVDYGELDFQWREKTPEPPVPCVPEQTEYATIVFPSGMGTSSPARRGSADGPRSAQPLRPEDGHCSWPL

T1 sequence (P01137 30-390 limits assumed): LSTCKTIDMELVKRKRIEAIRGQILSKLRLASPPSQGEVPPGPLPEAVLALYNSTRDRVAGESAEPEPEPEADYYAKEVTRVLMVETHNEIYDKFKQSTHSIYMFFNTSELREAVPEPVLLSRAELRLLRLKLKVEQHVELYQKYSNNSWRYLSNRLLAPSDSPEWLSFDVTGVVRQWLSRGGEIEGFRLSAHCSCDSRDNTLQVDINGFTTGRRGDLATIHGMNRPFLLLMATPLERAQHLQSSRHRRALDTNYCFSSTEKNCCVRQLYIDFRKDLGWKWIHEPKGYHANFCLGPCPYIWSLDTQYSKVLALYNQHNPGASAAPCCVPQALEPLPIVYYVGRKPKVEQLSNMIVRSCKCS

B1: PD1/TGFβRII融合蛋白 (other)
heavy: EVQLVESGGGLVQPGGSLRLSCAASGFAFSSYDMSWVRQAPGKGLDWVATISGGGRYTYYPDSVKGRFTISRDNSKNNLYLQMNSLRAEDTALYYCANRYGEAWFAYWGQGTLVTVSSASTKGPSVFPLAPSSKSTSGGTAALGCLVKDYFPEPVTVSWNSGALTSGVHTFPAVLQSSGLYSLSSVVTVPSSSLGTQTYICNVNHKPSNTKVDKKV[sequence of human IgG1 Fc with L234A L235A G237A (EU numbers) not given]AGGGGSGGGGSGGGGSGGGGSGIPPHVQKSVNNDMIVTDNNGAVKFPQLCKFCDVRFSTCDNQKSCMSNCSITSICEKPQEVCVAVWRKNDENITLETVCHDPKLPYHDFILEDAASPKCIMKEKKKPGETFFMCSCSSDECNDNIIFSEEYNTSNPD
light: DIQMTQSPSSMSASVGDRVTFTCRASQDINTYLSWFQQKPGKSPKTLIYRANRLVSGVPSRFSGSGSGQDYTLTISSLQPEDMATYYCLQYDEFPLTFGAGTKLELKRTVAAPSVFIFPPSDEQLKSGTASVVCLLNNFYPREAKVQWKVDNALQSGNSQESVTEQDSKDSTYSLSSTLTLSKADYEKHKVYACEVTHQGLSSPVTKSFNRGEC
notes: Made in CHO cells; also called PD-1/TGFβ双功能蛋白
[1]
  EC50: 0.0617 µg/mL
[2]
  EC50: 0.398 nM
人源PD-1 [3]
  EC50值(ng/mL), 报告基因法 PD-1端生物学活性: 282 ng/mL
人源PD-1 [4]
  EC50值(ng/mL), 报告基因法 PD-1端生物学活性: 158 ng/mL
